# Legend:
# Type in all cases: cell-based
# [1] = test system: SK-MEL-28 cells; assay: Real-time PCR Oxidative Stress and Antioxidant Defense Array
# Experimental: The resulting solution was warmed in a 65° C. water bath and vortexed at high speed. […] For the control vehicle, 9.5 mL of media was added to 500 μL of isopropanol. The control stock was further diluted (2 mL of stock) with 8 mL of media. […] Experimental details: […] (SABiosciences, Frederick, Md.). […] Further experiments were carried out using SKMEL-28 cells. […] The PCR array (SABiosciences) is a set of optimized real-time PCR primer assays on 96-well plates for pathway or disease focused genes as well as appropriate RNA quality controls. The PCR array performs gene expression analysis with real-time PCR sensitivity and the multi-gene profiling capability of a microarray.
# [2] = test system: SK-MEL-28 cells; conditions: Q10 (24 hr), 50 μM
# [3] = test system: SK-MEL-28 cells; assay: Real-time PCR Diabetes Array
# Experimental: The formulation of the Q10 was as follows. […] The resulting solution was warmed in a 65° C. water bath and vortexed at high speed. […] For the control vehicle, 9.5 mL of media was added to 500 μL of isopropanol. The control stock was further diluted (2 mL of stock) with 8 mL of media.
# (SABiosciences, Frederick, Md.).
# [4] = test system: SK-MEL28 cells; assay: Nexin assay for apoptosis, 24 h Q10; conditions: 50 μM and 100 μM Q10, 24 hours
# Source text: The 7AAD dye will enter into cells with permeabilized cell membranes; primarily those cells that are in late apoptosis. Annexin-V-PE is a dye that binds to Phosphotidyl serine, which is exposed on the outer surface of the plasma membrane in early apoptotic cells. The Nexin reagent thus can be used to differentiate between different populations of apoptotic cells in a flow cytometer.
# [5] = SK-MEL-28, 100 μM, then (after 48 hours)
compound,measurement,setting,value
"COC1=C(OC)C(=O)C(C/C=C(\C)CC/C=C(\C)CC/C=C(\C)CC/C=C(\C)CC/C=C(\C)CC/C=C(\C)CC/C=C(\C)CC/C=C(\C)CC/C=C(\C)CCC=C(C)C)=C(C)C1=O [Q10, Coenzyme Q10]",Forkhead box M1 (FOXM1) mRNA,[1]; 100 μM Q10,down regulated
same,NOX5 (NADPH oxidase) levels,[1]; 100 μM Q10,do not change
same,PREX1 mRNA,[1]; 100 μM Q10,upregulated
same,Neutrophil cytosolic factor 1 (NCF1) mRNA,[1]; 16 hour time point and onward,induced at very high levels
same,identified proteins with altered levels (antibody array),[2],"Bcl-x1, Bmf, BTK, BLK, cJun (pSer63), Connexin 32, PUMA bbc3, BID, Par4, cCb1"
same,MAPK14 mRNA,[3]; 100 μM Q10,significantly down-regulated
same,ADRB3 gene Regulation,"[3]; SK-MEL-28, 100 μM, at 48 hours",Down Regulated
same,CEACAM1 gene Regulation,"[3]; SK-MEL-28, 100 μM, at 48 hours",Down Regulated
same,CEBPA gene Regulation,"[3]; SK-MEL-28, 100 μM, at 48 hours",Up regulated at
same,CTLA4 gene Regulation,"[3]; SK-MEL-28, 100 μM, at 48 hours",Down Regulated
same,DUSP4 gene Regulation,"[3]; SK-MEL-28, 100 μM, at 48 hours",Down Regulated
same,ENPP1 gene Regulation,"[3]; SK-MEL-28, 100 μM, at 48 hours",Down Regulated
same,FOXC2 gene Regulation,"[3]; SK-MEL-28, 100 μM, at 48 hours",Down Regulated
same,G6PD gene Regulation,"[3]; SK-MEL-28, 100 μM, at 48 hours",Up regulated at
same,HMOX1 gene Regulation,"[3]; SK-MEL-28, 100 μM, at 48 hours",Down Regulated
same,ICAM1 gene Regulation,"[3]; SK-MEL-28, 100 μM, at 48 hours",Down Regulated
same,IL4R gene Regulation,"[3]; SK-MEL-28, 100 μM, at 48 hours",Down Regulated
same,IRS1 gene Regulation,"[3]; SK-MEL-28, 100 μM, at 48 hours",Up regulated at
same,IRS2 gene Regulation,"[3]; SK-MEL-28, 100 μM, at 48 hours",Down Regulated
same,NKX2-1 gene Regulation,"[3]; SK-MEL-28, 100 μM, at 48 hours",Down Regulated
same,NSF gene Regulation,"[3]; SK-MEL-28, 100 μM, at 48 hours",Down Regulated
same,PIK3CD gene Regulation,"[3]; SK-MEL-28, 100 μM, at 48 hours",Down Regulated
same,PPARG gene Regulation,"[3]; SK-MEL-28, 100 μM, at 48 hours",Down Regulated
same,PRKCB1 gene Regulation,"[3]; SK-MEL-28, 100 μM, at 48 hours",Down Regulated
same,SELL gene Regulation,"[3]; SK-MEL-28, 100 μM, at 48 hours",Down Regulated
same,SREBF1 gene Regulation,"[3]; SK-MEL-28, 100 μM, at 48 hours",Up regulated at
same,STXBP1 gene Regulation,"[3]; SK-MEL-28, 100 μM, at 48 hours",Down Regulated
same,TGFB1 gene Regulation,"[3]; SK-MEL-28, 100 μM, at 48 hours",Up regulated at
same,TNF gene Regulation,"[3]; SK-MEL-28, 100 μM, at 48 hours",Up regulated at
same,VEGFA gene Regulation,"[3]; SK-MEL-28, 100 μM, at 58 hours",Up regulated at
same,TNFRSF1A gene Regulation,"[3]; SK-MEL-28, 100 μM, at 72 hours",Down Regulated
same,G6PD gene Regulation,[3]; [5],down regulated
same,IRS1 gene Regulation,[3]; [5],down regulated
same,SREBF1 gene Regulation,[3]; [5],down regulated
same,TGFB1 gene Regulation,[3]; [5],down regulated
same,VEGFA gene Regulation,"[3]; SK-MEL-28, 100 μM, then (after 58 hours)",down regulated
same,expression of the nuclear receptor protein HNF4A,[3]; cells following Q10 treatment,upmodulated
same,early/late apoptotic population,[4],increase only in early apoptotic population

# Reference: patent publication US20110020312A1, “METHODS FOR TREATMENT OF METABOLIC DISORDERS USING EPIMETABOLIC SHIFTERS, MULTIDIMENSIONAL INTRACELLULAR MOLECULES, OR ENVIRONMENTAL INFLUENCERS” (priority 2009, published 2011)
